Reference: the supplement of paper PMC3334620
The full ranking holds about 33,000 sequences; the median of “E-score (-0.5 to 0.5)” is about -0.01, and the highest 2% start at about 0.26. Some of the results follow.

Target: Ste12 (UniProt P13574)
Assay: PBM E-score (8-mer binding enrichment) (E-score (-0.5 to 0.5)); higher = stronger / more preferred TF binding; most listed sequences are background and not binding sites
Conditions: protein concentration: 200 nM; construct: GST-DNA-binding domain
In short: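 Yeast transcription factors carrying a GST tag, as full-length proteins or DNA-binding domains, were produced by PURExpress in vitro transcription/translation. About 100-200 nM protein was applied to universal all-10-mer Agilent arrays, double-stranded by primer extension on fresh or once-stripped slides. Bound protein was detected with fluorescent anti-GST, and scans were normalised with masliner. The Universal PBM Analysis Suite gave each ungapped eight-base word, pooled with its reverse complement, an E-score, a modified Wilcoxon-Mann-Whitney statistic.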

Sequence | PBM E-score
GGGCTAAC | -0.31
AACTCATC | 0.024
CTATTGCC | 0.00687
GCAGAGCC | -0.128
AACACTGA | 0.229
CGCGAATC | 0.0213
ACCAAGAA | 0.0288
ATACTCCC | 0.00187
AAGTAGTA | -0.0474
ACGTGGAA | 0.0639
AGGGAGAC | -0.174
CCTCTGGC | 0.169
TTCGAAAA | 0.222
TAGCAGAA | 0.135
ATTTAGCA | 0.141
AGGATGAG | 0.0299
GTTGCCCA | -0.0149
AGCTTGTG | 0.0986
GGATCCCC | -0.0778
CATCTGCA | -0.0879
CTTGGCCC | -0.0477
GTGCTACA | -0.109
CCGGCTCG | -0.0936
CGACGAGA | -0.0106

Sequence | PBM E-score
GGGAACCC | -0.258
CATGAAAA | 0.237
CACTTCGC | 0.0953
GCCTGTAC | -0.188
AAATACAA | 0.22
CGGGGGTC | -0.238
AACTGTAG | -0.0573
AAGTATCC | -0.139
CGGACACG | -0.217
AACGGTTA | 0.0444
AACTTATT | 0.333
ACACTAGC | -0.145
GCCAGCGA | -0.129
AGACCACT | -0.0927
AATAAGTC | 0.0265
CCATCAAC | -0.144
AACAGAGA | 0.043
ATGGGGCC | -0.164
CTATGTTC | 0.0314
CAATGAAG | -0.111
AATAGTAT | 0.0945
AAGCGGCG | 0.0295
AATTCTGC | 0.201
GAGTGGGC | -0.089

Sequence | PBM E-score
CACAACCA | 0.125
AGATTTGG | -0.00783
CCGACTCG | -0.0656
TACATCAA | 0.188
ACCGTATC | 0.12
CATATAAG | 0.0207
AGACAAAT | 0.217
CTTCGCTA | -0.0824
TCAGAGAA | 0.157
CGATTACC | -0.239
AGGCTAAG | -0.192
GCCTCTTA | -0.117
GTAACAAA | 0.312
CACTGACC | 0.0829
CTCTCAAC | -0.0802
AGTTCGAA | 0.146
CTTCGGTA | 0.0138
CGTGAACC | -0.103
AGAGGATG | -0.035
AACACAGG | -0.15
ACCTCACG | 0.0362
CTAATGCC | -0.165
GGTATCGA | 0.139
ACGCCTTA | -0.0631

Sequence | PBM E-score
GTATCCGA | -0.0741
CCACGGAA | -0.0956
GAAGTCGC | -0.104
TGCCCGAA | -0.143
GAGAAGCC | -0.122
GAGCTACC | -0.116
GCTGTGCC | 0.0564
CCAATAAG | 0.0854
CGACAACA | 0.153
ATTTTCCA | 0.0716
GGTCGCAC | -0.132
ACTTCCAT | 0.0326
GGGTCCTA | -0.0528
CATTGACC | 0.0502
CCACTAGG | 0.0399
AATACCGC | 0.183
CTTCATAA | 0.219
ACTGCTTG | -0.0803
ACTACAGA | 0.146
ATCCCCTG | -0.157
TGATATAA | -0.12
AGGTTTAA | 0.0245
